{
  "source": "PubChem BioAssay AID1625",
  "about": "(Sanford-Burnham Center for Chemical Genomics, 2009)",
  "note": "The list shows a part of the results. The main result of the screen is listed elsewhere. These columns were measured beside it and carry no call. The list favours compounds with an active or inconclusive main result.",
  "data": [
    {"assay": "insulin promoter activators in MIN6 cells, imaging, high-content screening, mouse beta cells (AID 1625);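 note: total cells summed across four imaged fields per well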", "conditions": "MIN6 insulin promoter-GFP reporter, measured here: cytotoxicity, nuclei count, at 5 µM", "units": {"cell count": "cells"}, "values": [
      {"compound": "O=[N+]([O-])c1ccc(N2CCCC2)cc1NC(c1ccccc1)c1ccccc1", "cell count": 445},
      {"compound": "O=[N+]([O-])c1ccc(O)c(/C=N/Nc2ccc(Cl)nn2)c1", "cell count": 472},
      {"compound": "C=CCC(c1ccccc1)N(C(C)=O)c1ccco1", "note": "(stereo not drawn)", "cell count": 1340},
      {"compound": "O=C1C2C3C=CC(C3)C2C(=O)N1CCc1ccccc1", "note": "(stereo not drawn)", "cell count": 877},
      {"compound": "Cc1ccc(-n2ncc(C(=O)Nc3cc(Cl)cc(Cl)c3)c2C2CCNCC2)cc1C", "cell count": 460},
      {"compound": "COCCn1c(C)cc(C(=O)COc2nc3ccccc3nc2C)c1C", "cell count": 304},
      {"compound": "CC[C@]1(O)C[C@@H]2CN(CCc3c([nH]c4ccccc34)[C@@](C(=O)OC)(c3cc4c(cc3OC)N(C)[C@H]3[C@@](O)(C(=O)OC)[C@H](OC(C)=O)[C@]5(CC)C=CCN6CC[C@]43[C@@H]65)C2)C1", "cell count": 310},
      {"compound": "COCCNC(=S)N/N=C(\\C)c1ccc2cc(OC)ccc2c1", "cell count": 1260},
      {"compound": "Oc1ccc(Nc2nc(NCC3CCCO3)c3ccccc3n2)cc1", "note": "(stereo not drawn)", "cell count": 344},
      {"compound": "CCCOc1ccc(/C=N/NC(=S)Nc2ccccc2[N+](=O)[O-])c(O)c1", "cell count": 440},
      {"compound": "O=C1S/C(=C\\c2ccc(N3CCOCC3)o2)C(=O)N1Cc1ccc(F)cc1", "cell count": 1620},
      {"compound": "CC1=C/C(=N\\OS(=O)(=O)c2ccccc2)C(C(C)C)=CC1=O", "cell count": 393},
      {"compound": "O=C1/C(=C/c2ccc(N3CCOCC3)o2)SC(=Nc2ccccc2)N1CCc1c[nH]c2ccccc12", "cell count": 1550},
      {"compound": "CC1CCCN(c2nc3c(c(=O)n(C)c(=O)n3C)n2CCSc2nc3ccccc3s2)C1", "note": "(stereo not drawn)", "cell count": 610},
      {"compound": "NC(=O)CC(NC(=O)c1ccc(Br)cc1)c1ccc(N2CCC(Br)CC2)c([N+](=O)[O-])c1", "note": "(stereo not drawn)", "cell count": 369},
      {"compound": "Cc1ccccc1OCC(=O)OC1CCN(C)CC1", "cell count": 1520},
      {"compound": "Cc1cccc2nc(CSc3nc4[nH]ncc4c(=O)n3-c3cccc(Cl)c3)cc(=O)n12", "cell count": 443},
      {"compound": "CCc1ccc(-c2nc(CN3CCC(C(=O)NCc4ccccc4OC)CC3)c(C)o2)cc1", "cell count": 437},
      {"compound": "CC1Cc2ccccc2N1C1=CC(=O)CCC1", "note": "(stereo not drawn)", "cell count": 497},
      {"compound": "N=c1c2c(n(Cc3cccc(Cl)c3)c3c1CCC3)CCCC2", "cell count": 404},
      {"compound": "COC(=O)c1c(NC(=O)c2nc3ccccc3s2)sc2c1CC(C)(C)NC2(C)C", "cell count": 426},
      {"compound": "CC(C)(C)NC(=O)CN(C(=O)Cn1nnc(-c2ccc(Cl)cc2)n1)C1CCN(Cc2ccccc2)CC1", "cell count": 279},
      {"compound": "CC[n+]1c(/C=C/c2c[nH]c3ccccc23)ccc2cc(C)ccc21", "cell count": 494},
      {"compound": "Cc1ccc(-n2c(C)nc3oc4ccccc4c(=O)c3c2=O)cc1", "cell count": 1090},
      {"compound": "CC1CCC(C(C)C)C(OC(=O)Cn2c(-c3ccc(Cl)cc3)[n+](C)c3ccccc32)C1", "note": "(stereo not drawn)", "cell count": 394},
      {"compound": "Cc1nn(Cc2ccc(Cl)c(Cl)c2)c(C)c1NC(=O)c1cc(-c2ccco2)on1", "cell count": 488},
      {"compound": "CCCCCOC(=O)c1[nH]c2c(c1C)C(=O)CC(c1ccco1)C2", "note": "(stereo not drawn)", "cell count": 486},
      {"compound": "O=C(CSc1ncn[nH]1)NCc1ccccc1", "cell count": 1240},
      {"compound": "CC1(C)CC(N=c2cc(-c3ccccc3)oc3ccc(Cl)cc23)CC(C)(C)N1", "cell count": 436},
      {"compound": "O=[N+]([O-])c1ccc(/C=N/n2cnc3ccccc32)s1", "cell count": 242},
      {"compound": "N/C(=N\\OC(=O)C1CCCCC1)c1cccc([N+](=O)[O-])c1", "cell count": 1360},
      {"compound": "Cc1ccc(C2C3CN(C(C)C)CC=C3C(C#N)=C(N)C2(C#N)C#N)cc1", "note": "(stereo not drawn)", "cell count": 1130},
      {"compound": "CCC(C)(C)c1ccc(OCCCC[n+]2ccccc2)c(C(C)(C)CC)c1", "cell count": 341},
      {"compound": "COc1cc2nc(/C=C/c3ccc(N(C)C)cc3)sc2cc1SC", "cell count": 1340},
      {"compound": "COc1ccc2cc1Oc1ccc(cc1)CC1c3c(cc(OC)c4c3Oc3cc5c(cc3O4)CCNC5C2)CCN1C", "note": "(stereo not drawn)", "cell count": 229},
      {"compound": "CC(=O)Nc1ccc(NC2=C(Cl)C(=O)c3ccccc3C2=O)cc1", "cell count": 321},
      {"compound": "CC(/C=N/NC(=O)c1ccncc1)=C\\c1ccc(C(C)C)cc1", "cell count": 1300},
      {"compound": "CCN1CCS/C1=C/C=C/C1=[N+](CC)CCS1", "cell count": 269},
      {"compound": "CCOC(=O)c1ccc(CSc2nnc(-c3ccncc3)n2N)cc1", "cell count": 1040},
      {"compound": "C=C1C(=O)[C@@]23[C@H](O)C[C@@H]4C(C)(C)CC[C@H](O)[C@@]4(C)[C@@H]2CC[C@@H]1[C@H]3O", "cell count": 387},
      {"compound": "O=C1/C(=N\\S(=O)(=O)c2cccs2)C([n+]2cccc(Cc3ccccc3)c2)=C([O-])c2ccccc21", "cell count": 942},
      {"compound": "O=c1c(Cl)c(Cl)cnn1Cc1nnc(-c2ccc(Cl)cc2)o1", "cell count": 366},
      {"compound": "CCc1ccc(NC(=O)CSc2nc3n[nH]c(C)c3c(=N)n2-c2cccc(OC)c2)cc1", "cell count": 463},
      {"compound": "Nc1nnc(-c2cc3c(ccc4ccccc43)oc2=O)s1", "cell count": 1520},
      {"compound": "CCc1ccc(/C=C/c2c[nH]c3ccccc23)[n+](CC)c1", "cell count": 256},
      {"compound": "COc1cc(C)nc(N2CCCC(C(=O)Nc3cccc(Cl)c3C)C2)n1", "note": "(stereo not drawn)", "cell count": 772},
      {"compound": "COc1cc([C@@H]2[C@H]3CNCC=C3C(C#N)=C(N)C2(C#N)C#N)ccc1OC(C)C", "cell count": 1320},
      {"compound": "C=CCc1c(C)nc(-c2ccccc2)nc1N/N=C(\\C)c1ccc(N)cc1", "cell count": 499},
      {"compound": "CCC(=O)OCC(=O)c1c(N)n(Cc2ccccc2)c(=O)n(C)c1=O", "cell count": 1420},
      {"compound": "O=c1c(-c2ccccc2)c1-c1ccccc1", "cell count": 475},
      {"compound": "C(=C/c1nccc2c1[nH]c1ccccc12)/c1ccc2c(c1)OCO2", "cell count": 1230},
      {"compound": "COc1c2c(nc3ccccc13)OC(C(C)(O)COC(C)=O)C2", "note": "(stereo not drawn)", "cell count": 789},
      {"compound": "CC1CCN(S(=O)(=O)c2ccc3c(c2)c(=O)c(C(=O)N2CCCCC2)cn3C)CC1", "cell count": 1130},
      {"compound": "COc1ccc(-[n+]2c(C)cc(/C=C3\\Sc4ccccc4N3C)cc2C)cc1", "cell count": 459},
      {"compound": "CN1C(=O)N(C)C2(c3ccccc3)Nn3c(s/c(=C/c4ccccc4)c3=O)=NC12c1ccccc1", "note": "(stereo not drawn)", "cell count": 348},
      {"compound": "CC1CCc2cc(F)ccc2N1C(=O)CCC(=O)O", "note": "(stereo not drawn)", "cell count": 493},
      {"compound": "On1onc2c3cc(-c4ccccc4)nc3ccc21", "cell count": 488},
      {"compound": "CC(=O)Oc1c(C)cc(Cl)cc1C(=O)Nc1ccc([N+](=O)[O-])cc1Cl", "cell count": 494},
      {"compound": "CC(=O)OC(C(=O)NCc1ccc(F)cc1)c1ccccn1", "note": "(stereo not drawn)", "cell count": 1480},
      {"compound": "O=S(=O)(c1ccc(NC(=S)NCCc2ccccc2)cc1)N1CCOCC1", "cell count": 449},
      {"compound": "Cc1ccc(NC(=O)CSc2nnc(-c3cnccn3)n2Cc2ccco2)cc1C", "cell count": 443},
      {"compound": "Cc1c(Cl)cccc1N/C(SCC(=O)N1CCCCCC1)=C(/C#N)c1nc2ccccc2s1", "cell count": 396},
      {"compound": "CCCCOc1ccc(-c2cc(C(F)(F)F)c(C#N)c(SCC(=O)O)n2)cc1", "cell count": 1370}
    ]}
  ]
}
